Data taken from the supplement of paper PMC8728848.
The other results are listed elsewhere or left out.

Columns and labels:
Experiment in all cases: glycan array binding signal (z-score within array); higher = stronger binding
Settings in all cases: glycan notation: IUPAC condensed, linker removed
Gal(b1-3)GlcNAc = target: Gal(b1-3)GlcNAc
Summary of the method: (§1)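 From the Consortium for Functional Glycomics database, 3228 arrays were curated, keeping only those whose protein sequence was available. Binding is given as a within-array Z-score averaged across arrays sharing a protein sequence and across linkers. Negative Z-scores can be read as non-binding.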

[1] = target: Gal(b1-3)GlcNAc(b1-2)Man(a1-3)[Gal(b1-3)GlcNAc(b1-2)Man(a1-6)]Man(b1-4)GlcNAc(b1-4)GlcNAc
Summary of the method: as §1

[2] = target: Gal(b1-3)GlcNAc(b1-3)Gal(b1-3)GlcNAc
Summary of the method: as §1

[3] = target: Gal(b1-3)GlcNAc(b1-3)Gal(b1-4)Glc
Summary of the method: as §1

[4] = target: Gal(b1-3)GlcNAc(b1-3)Gal(b1-4)GlcNAc
Summary of the method: as §1

[5] = target: Gal(b1-3)[Fuc(a1-4)]GlcNAc
Summary of the method: as §1

[6] = target: Gal(b1-3)[Fuc(a1-4)]GlcNAc(b1-3)Gal(b1-3)[Fuc(a1-4)]GlcNAc
Summary of the method: as §1

[7] = target: Gal(b1-3)[Fuc(a1-4)]GlcNAc(b1-3)Gal(b1-4)GlcNAc
Summary of the method: as §1

[8] = target: Gal(b1-3)[Fuc(a1-4)]GlcNAc(b1-3)Gal(b1-4)[Fuc(a1-3)]GlcNAc
Summary of the method: as §1

[9] = target: Gal(b1-3)[GlcNAc(b1-6)]GalNAc
Summary of the method: as §1

[10] = target: Gal(b1-3)[Neu5Ac(a2-6)]GalNAc
Summary of the method: as §1

[11] = target: Gal(b1-3)[Neu5Ac(a2-6)]GlcNAc(b1-6)Gal(b1-4)Glc
Summary of the method: as §1

[12] = target: Gal(b1-3)[Neu5Ac(b2-6)]GalNAc
Summary of the method: as §1

[13] = target: Gal(b1-4)GalNAc(a1-3)[Fuc(a1-2)]Gal(b1-4)GlcNAc
Summary of the method: as §1

[14] = target: Gal(b1-4)GalNAc(b1-3)[Fuc(a1-2)]Gal(b1-4)GlcNAc
Summary of the method: as §1

Gal(b1-4)Glc = target: Gal(b1-4)Glc
Summary of the method: as §1

Gal(b1-4)Glc6S = target: Gal(b1-4)Glc6S
Summary of the method: as §1

Gal(b1-4)GlcNAc = target: Gal(b1-4)GlcNAc
Summary of the method: as §1

[15] = target: Gal(b1-4)GlcNAc(a1-6)Gal(b1-4)GlcNAc
Summary of the method: as §1

[16] = target: Gal(b1-4)GlcNAc(b1-2)Man(a1-3)[Gal(b1-4)GlcNAc(b1-2)Man(a1-6)]Man(b1-4)GlcNAc(b1-4)GlcNAc
Summary of the method: as §1

[17] = target: Gal(b1-4)GlcNAc(b1-3)Gal(b1-3)GlcNAc
Summary of the method: as §1

[18] = target: Gal(b1-4)GlcNAc(b1-3)Gal(b1-4)Glc
Summary of the method: as §1

[19] = target: Gal(b1-4)GlcNAc(b1-3)Gal(b1-4)GlcNAc
Summary of the method: as §1

[20] = target: Gal(b1-4)GlcNAc(b1-3)Gal(b1-4)GlcNAc(b1-3)Gal(b1-4)GlcNAc
Summary of the method: as §1

[21] = target: Gal(b1-4)GlcNAc(b1-3)Gal(b1-4)[Fuc(a1-3)]GlcNAc(b1-3)Gal(b1-4)[Fuc(a1-3)]GlcNAc
Summary of the method: as §1

[22] = target: Gal(b1-4)GlcNAc(b1-3)GalNAc
Summary of the method: as §1

[23] = target: Gal(b1-4)GlcNAc(b1-3)[Gal(b1-4)GlcNAc(b1-6)]Gal(b1-4)GlcNAc
Summary of the method: as §1

[24] = target: Gal(b1-4)GlcNAc(b1-3)[GlcNAc(b1-6)]Gal(b1-4)GlcNAc
Summary of the method: as §1

[25] = target: Gal(b1-4)GlcNAc(b1-6)Gal(b1-4)GlcNAc
Summary of the method: as §1

[26] = target: Gal(b1-4)GlcNAc(b1-6)Gal(b1-4)GlcNAc(b1-6)GalNAc
Summary of the method: as §1

[27] = target: Gal(b1-4)GlcNAc(b1-6)GalNAc
Summary of the method: as §1

[28] = target: Gal(b1-4)GlcNAc(b1-6)[Gal(b1-3)]GalNAc
Summary of the method: as §1

Gal3S(b1-3)GalNAc = target: Gal3S(b1-3)GalNAc
Summary of the method: as §1

Gal3S(b1-3)GlcNAc = target: Gal3S(b1-3)GlcNAc
Summary of the method: as §1

[29] = target: Gal3S(b1-3)[Fuc(a1-4)]GlcNAc
Summary of the method: as §1

Gal3S(b1-4)Glc = target: Gal3S(b1-4)Glc
Summary of the method: as §1

Gal3S(b1-4)Glc6S = target: Gal3S(b1-4)Glc6S
Summary of the method: as §1

Gal3S(b1-4)GlcNAc = target: Gal3S(b1-4)GlcNAc
Summary of the method: as §1

B1: HFR-1 (Triticum aestivum) (protein)
chain: MSPQSFTLETTTTTPAAKGSDPSYFQSAPACHEMIQHKELLLHLYAYQNVQKTPDANQAVIVESKRPECFGILAANDWTVYDGPAHNANLVAHAQGLHLGASMAKENWFICFNMVFVNQRFTGSSFKVMGDFQGTAHNGEWAIVGGTGEFAYAQGVIAFKKTQQSERNARMELHVRAMCLSFLRPLLSLGDGSAVAKIGPWGKMSGELLDIPSTPQRLERITIRHGVVIDSLAFSFIDKAGEPYNVGPWGGRRGDNKDTIELAPSEIVTEVSGTVGIFAEDNVEYNAIASLTITTNHRPYGPFGETQSTPFSVPVQDNNNIVGFFACAGKYVEALGVYVRSPVST
glycan array binding signal (z-score) (Gal(b1-3)GlcNAc): -0.214
glycan array binding signal (z-score) [1]: -0.241
glycan array binding signal (z-score) [2]: -0.236
glycan array binding signal (z-score) [3]: 0.08
glycan array binding signal (z-score) [4]: -0.241
glycan array binding signal (z-score) [5]: -0.148
glycan array binding signal (z-score) [6]: -0.116
glycan array binding signal (z-score) [7]: 0.161
glycan array binding signal (z-score) [8]: -0.195
glycan array binding signal (z-score) [9]: -0.094
glycan array binding signal (z-score) [10]: -0.212
glycan array binding signal (z-score) [11]: -0.188
glycan array binding signal (z-score) [12]: -0.222
glycan array binding signal (z-score) [13]: 0.021
glycan array binding signal (z-score) [14]: 0.076
glycan array binding signal (z-score) (Gal(b1-4)Glc): 0.153
glycan array binding signal (z-score) (Gal(b1-4)Glc6S): 0.057
glycan array binding signal (z-score) (Gal(b1-4)GlcNAc): -0.209
glycan array binding signal (z-score) [15]: -0.218
glycan array binding signal (z-score) [16]: -0.223
glycan array binding signal (z-score) [17]: -0.196
glycan array binding signal (z-score) [18]: -0.14
glycan array binding signal (z-score) [19]: -0.198
glycan array binding signal (z-score) [20]: -0.233
glycan array binding signal (z-score) [21]: -0.22
glycan array binding signal (z-score) [22]: -0.131
glycan array binding signal (z-score) [23]: -0.098
glycan array binding signal (z-score) [24]: -0.135
glycan array binding signal (z-score) [25]: -0.222
glycan array binding signal (z-score) [26]: -0.215
glycan array binding signal (z-score) [27]: -0.139
glycan array binding signal (z-score) [28]: -0.206
glycan array binding signal (z-score) (Gal3S(b1-3)GalNAc): -0.16
glycan array binding signal (z-score) (Gal3S(b1-3)GlcNAc): -0.179
glycan array binding signal (z-score) [29]: -0.139
glycan array binding signal (z-score) (Gal3S(b1-4)Glc): -0.19
glycan array binding signal (z-score) (Gal3S(b1-4)Glc6S): -0.123
glycan array binding signal (z-score) (Gal3S(b1-4)GlcNAc): -0.212
